Reference: patent publication US20240270859A1 (HK INNO N, published 2024)
Like-named read-outs stand apart in the source and are kept apart here.

T1: human OX40L protein (OX40L-his), Acro Biosystems Cat #OXL-H52Q8 (human, UniProt P23510 51-183)
T1 sequence: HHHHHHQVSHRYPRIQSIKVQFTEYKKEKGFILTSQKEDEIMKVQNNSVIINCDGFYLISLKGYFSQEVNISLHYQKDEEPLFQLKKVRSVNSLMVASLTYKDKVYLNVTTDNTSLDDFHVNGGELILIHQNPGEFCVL


What was measured:
Assay in all cases: cell-based or functional assay
[1] = biological target: T2, human TNFα (TNF-H5228 of Acro Biosystems) (human, UniProt P01375 part only)
T2 sequence (P01375 77-233 limits assumed): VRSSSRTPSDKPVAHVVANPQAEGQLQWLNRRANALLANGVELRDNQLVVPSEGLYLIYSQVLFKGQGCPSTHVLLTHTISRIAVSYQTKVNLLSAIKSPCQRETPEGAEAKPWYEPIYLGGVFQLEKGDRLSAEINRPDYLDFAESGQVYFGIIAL

[2] = biological target: T1, human OX40L protein (OX40L-his), Acro …
[3] = biological target: T2, human TNFα (TNF-H5228 of Acro …); remark: listed apart in the source

IC50 (nM), TNFα blockade assay (luminescence of NFκB-RE HEK293 cells) [1] [nM] | IC50 (nM), OX40L blockade assay (luminescence of NFκB-luc2/OX40 Jurkat cells) [2] [nM] | IC50 (nM), TNFα blockade assay (luminescence of NFκB-RE HEK293 cells) [3] [nM] | Binder
0.058 | – | – | bispecific antibody 02C09-TNFαi LC (bispecific antibody) heavy: QMQLVQSGGGLVKPGGSLRVSCAASGFTFNYAWMSWVRQAPGKGLEWVGRIKGEPDGGTTEYADSVKGRFTISRDNSKNTLYLQMNSLRAEDTAVYYCVSRRGLDVWGQGTTVTVSSASTKGPSVFPLAPCSRSTSESTAALGCLVKDYFPEPVTVSWNSGALTSGVHTFPAVLQSSGLYSLSSVVTVPSSSLGTKTYTCNVDHKPSNTKVDKRV[human IgG4 Fc with S228P (EU numbers) not spelt out] light: not shown
– | 0.94 | 0.077 | bispecific antibody I3F07-TNFαi LC (bispecific antibody) heavy: QIQLAQSGAELVKPGASVKLSCKASGFTFPDYWMHWVKQRPGQGLEWIGEIDPPNGRTNYNEKFKSKATLTVDSSSNTAYMQLSRLTSEDSAVYYCARGIYYVDYWGQGTTLTVSSASTKGPSVFPLAPCSRSTSESTAALGCLVKDYFPEPVTVSWNSGALTSGVHTFPAVLQSSGLYSLSSVVTVPSSSLGTKTYTCNVDHKPSNTKVDKRV[human IgG4 Fc with S228P (EU numbers) not spelt out] light: not shown
